The source of these data is the supplement of paper PMC6135742.

Where a name gives a salt, the structure may show the parent alone. ± gives the standard deviation of the averaged measurements. The full ranking holds about 2,600 compounds; the median of “MBP+ mature oligodendrocyte number relative to DMSO vehicle control” is about -0.34, and the highest 2% start at about 13. Some of the results follow. Bounds are passed on as bounds.
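Further: 10 µM single dose with 3-day oligodendrocyte differentiation.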

The assay deals with jimpy (Plp1 jimpy) mouse iPSC-derived oligodendrocyte progenitor cells. Description: MBP+ mature oligodendrocyte number relative to DMSO vehicle control (SDs above negative control mean); higher = more surviving jimpy oligodendrocytes (rescue). As to conditions: 10 µM; 3 days.
For the compound `O=C1CN2Cc3c(ccc(Cl)c3Cl)N=C2N1` [Anagrelide HCl], the “MBP+ mature oligodendrocyte number” value turned out to be 2.25. As to `CC(N)(C(=O)O)c1ccc(C(=O)O)cc1` (racemic) [(±)-alpha-Methyl-4-carboxyphenylglycine], the “MBP+ mature oligodendrocyte number” value is -1.03. For the compound `CN(C)Cc1c(C(=O)NCCOc2ccc(C(=O)NO)cc2)oc2ccccc12`, the “MBP+ mature oligodendrocyte number” value is less than -6.7. In the case of `CC(C)NCC(O)COc1ccc(COCCOC(C)C)cc1` (centres undefined) [Bisoprolol hemifumarate salt], the “MBP+ mature oligodendrocyte number” value was -0.0098. With `CC(C)NCC(O)COc1ccc(COCCOC(C)C)cc1` (centres undefined) [Bisoprolol fumarate] the figure was less than -6.7; with `CN1C2CCCC1CC(NC(=O)c1nn(C)c3ccccc13)C2` (centres undefined) [Granisetron HCl], 0.196. Consider `CN1C2CCCC1CC(NC(=O)c1nn(C)c3ccccc13)C2` (centres undefined) [Granisetron hydrochloride], for which the “MBP+ mature oligodendrocyte number” value was 0.324. Take `N=C(N)c1ccccc1` [Benzamidine hydrochloride]: the “MBP+ mature oligodendrocyte number” value is -0.708. With `CCCCCc1ccc(/C=C/C(=O)Nc2cc(Cl)ccc2C(=O)O)cc1`, the “MBP+ mature oligodendrocyte number” value came to 0.0686. `CCN(Cc1ccncc1)C(=O)C(CO)c1ccccc1` (centres undefined) [Tropicamide]: the “MBP+ mature oligodendrocyte number” value is -0.244 ± 1.5. For `OC(CCN1CCCCC1)(c1ccccc1)C1CC2C=CC1C2` (centres undefined) [Biperiden HCl], the “MBP+ mature oligodendrocyte number” value amounted to 13.7. In the case of `OC(CCN1CCCCC1)(c1ccccc1)C1CC2C=CC1C2` (centres undefined) [Biperiden hydrochloride] it was 2.59. As to `Cc1ncc([N+](=O)[O-])n1CCO` [Metronidazole], the “MBP+ mature oligodendrocyte number” value amounted to 0.523. On to `CCN(CC)CC#CCOC(=O)C(O)(c1ccccc1)C1CCCCC1` (centres undefined) [Oxybutynin Chloride], for which the “MBP+ mature oligodendrocyte number” value amounted to 13.5.

For the compound `CCN(CC)CC#CCOC(=O)C(O)(c1ccccc1)C1CCCCC1` (centres undefined) [Oxybutynin chloride], the “MBP+ mature oligodendrocyte number” value came out at 29.7. Turning to `CC(=O)O/N=C1\C(=O)N(Cc2cc(Cl)ccc2Cl)c2ccc(Cl)cc21`, the “MBP+ mature oligodendrocyte number” value amounted to 5.56. In the case of `COc1ccc(COc2ccc(Cc3cnc(N)nc3N)cc2OC)cc1`, the “MBP+ mature oligodendrocyte number” value amounted to 4.11. In the case of `COc1ccc(C(=O)NCc2cccnc2)cc1C(=O)NCc1cccnc1` [Picotamide], the “MBP+ mature oligodendrocyte number” value amounted to 1.07. For the compound `CC(C)c1cccc(C(C)C)c1N1C(=O)c2ccc(O)cc2C1=O`, the “MBP+ mature oligodendrocyte number” value was 0.61.

Take `COC(=O)C1=C(C)NC(C)=C(C(=O)OC)C1c1cccc(NC(=O)NCCCN2CCC(c3cccc(OC)c3)CC2)c1`: the “MBP+ mature oligodendrocyte number” value was less than -3.85. Take `C=CC[C@@H]1/C=C(\C)C[C@H](C)C[C@H](OC)[C@H]2O[C@@](O)(C(=O)C(=O)N3CCCC[C@H]3C(=O)O[C@H](/C(C)=C/[C@@H]3CC[C@@H](O)[C@H](OC)C3)[C@H](C)[C@@H](O)CC1=O)[C@H](C)C[C@@H]2OC` [Tacrolimus (FK506)]: the “MBP+ mature oligodendrocyte number” value came out at 4.88.

Regarding `O=C(N/N=C/c1ccc(O)c(O)c1)c1cc2ccccc2cc1O` [Dynasore], the “MBP+ mature oligodendrocyte number” value is -3.68.

`Cc1ccc(C(=O)c2cc(O)c(O)c([N+](=O)[O-])c2)cc1` [Tolcapone]: the “MBP+ mature oligodendrocyte number” value stood at 5.14. With `O=C([O-])c1ccccc1O.[Na+]` [Sodium salicylate] the figure was 0.819; with `COc1ccc2[nH]cc(CCNC(C)=O)c2c1` [Melatonin], -1.02 ± 0.38. Regarding `CCCCS(=O)(=O)N[C@@H](Cc1ccc(OCCCCC2CCNCC2)cc1)C(=O)O` [Tirofiban hydrochloride monohydrate], the “MBP+ mature oligodendrocyte number” value was -0.354.

Consider `O=C(Nc1cc(C(F)(F)F)ccc1N1CCCCC1)c1ccncc1`, for which the “MBP+ mature oligodendrocyte number” value was 0.829.

As for `COc1cc2nc(N3CCN(C(=O)c4ccco4)CC3)nc(N)c2cc1OC` [Prazosin hydrochloride], the “MBP+ mature oligodendrocyte number” value is less than -3.85.

Consider `COc1cc2nc(N3CCN(C(=O)c4ccco4)CC3)nc(N)c2cc1OC` [Prazosin HCl], for which the “MBP+ mature oligodendrocyte number” value is less than -6.7. Consider `NCCS(=O)(=O)O` [Taurine], for which the “MBP+ mature oligodendrocyte number” value was determined as 1.29. Turning to `N#CC(C#N)=C(N)/C(C#N)=C/c1ccc(O)cc1` [Tyrphostin AG 112], the “MBP+ mature oligodendrocyte number” value was -0.14.

As to `Cc1ccc(NC(=O)c2ccc(CN3CCN(C)CC3)cc2)cc1Nc1nc(-c2cccnc2)cs1` [Masitinib (AB1010)], the “MBP+ mature oligodendrocyte number” value is -6.26.

In the case of `COc1nc(C)nc(Cl)c1NC1=NCCN1` [Moxonidine hydrochloride], the “MBP+ mature oligodendrocyte number” value was -0.167. With `COc1nc(C)nc(Cl)c1NC1=NCCN1` [Moxonidine] the figure was -0.377; with `Cc1ccc(S(=O)(=O)NC(=O)NN2CC3CCCC3C2)cc1` (centres undefined) [Gliclazide], -0.276; with `c1ccc(C(NCCNC(c2ccccc2)c2ccccc2)c2ccccc2)cc1`, less than -3.97.

For the compound `O=c1c(O)c(-c2cc(O)c(O)c(O)c2)oc2cc(O)cc(O)c12` [Myricetin], the “MBP+ mature oligodendrocyte number” value is -1.47 ± 0.82. In the case of `Cc1cc(Cn2cnc3c2CC(C(=O)O)N(C(=O)C(c2ccccc2)c2ccccc2)C3)ccc1N(C)C` (centres undefined) it was 0.998. In the case of `O=c1[nH]c2ccccc2c2ccccc12` [6(5H)-Phenanthridinone], the “MBP+ mature oligodendrocyte number” value is -0.783. Regarding `C#CCN(C)Cc1ccccc1` [Pargyline hydrochloride], the “MBP+ mature oligodendrocyte number” value was -0.39. Take `COc1ccc2cc(CCC(C)=O)ccc2c1` [Nabumetone]: the “MBP+ mature oligodendrocyte number” value was determined as 1.84. `Cc1cccc(/C=C/c2ccccc2)n1`: the “MBP+ mature oligodendrocyte number” value was -0.0684. In the case of `CCn1cc(C(=O)O)c(=O)c2ccc(C)nc21` [Nalidixic acid sodium] it was -1.3. Regarding `CCn1cc(C(=O)O)c(=O)c2ccc(C)nc21` [Nalidixic acid], the “MBP+ mature oligodendrocyte number” value was determined as 0.0594. On to `COc1ccc(-c2oc3c(CC=C(C)C)c(O[C@@H]4O[C@H](CO)[C@@H](O)[C@H](O)[C@H]4O)cc(O)c3c(=O)c2O[C@@H]2O[C@@H](C)[C@H](O)[C@@H](O)[C@H]2O)cc1` [Icariin], for which the “MBP+ mature oligodendrocyte number” value is -0.108. Consider `C[C@H]1[C@@H](O)O[C@@H]2O[C@@]3(C)CC[C@H]4[C@H](C)CC[C@@H]1[C@@]24OO3` [Dihydroartemisinin (DHA)], for which the “MBP+ mature oligodendrocyte number” value was -3.91.

Turning to `CCO[C@@H]1OC(=O)C[C@@H]1NC(=O)[C@@H]1CCCN1C(=O)[C@@H](NC(=O)c1ccc(N)c(Cl)c1)C(C)(C)C`, the “MBP+ mature oligodendrocyte number” value is 0.227. `CCN(CC)CCNC(=O)c1cc(S(C)(=O)=O)ccc1OC` [Tiapride hydrochloride]: the “MBP+ mature oligodendrocyte number” value is 0.00298. On to `O=C(CCCN1CC=C(n2c(=O)[nH]c3ccccc32)CC1)c1ccc(F)cc1` [Droperidol], for which the “MBP+ mature oligodendrocyte number” value worked out at 0.233 ± 0.23.

With `CCCC(=O)O[C@]1(C(=O)COC(C)=O)CC[C@H]2[C@@H]3C[C@H](F)C4=CC(=O)C=C[C@]4(C)[C@@]3(F)[C@@H](O)C[C@@]21C` [Difluprednate], the “MBP+ mature oligodendrocyte number” value was 10.7. Regarding `Nc1ccc(C(=O)NCC(=O)O)cc1` [4-Aminohippuric Acid], the “MBP+ mature oligodendrocyte number” value worked out at 1.85. With `COc1ccc(NS(=O)(=O)c2ccc(N)cc2)nn1` [Sulfamethoxypyridazine] the figure was 2.52; with `OC[C@H]1O[C@@H](Oc2ccc(O)cc2)[C@H](O)[C@@H](O)[C@@H]1O` [Arbutin], -0.388; with `O=C(c1ccc(C(=O)N2CCC(N3CCCC3)CC2)c(Nc2ccccc2)c1)N1CCC(N2CCCC2)CC1`, -0.945. Turning to `OCCN1CCN(CCCN2c3ccccc3Sc3ccc(Cl)cc32)CC1` [Perphenazine], the “MBP+ mature oligodendrocyte number” value is less than -3.97. As to `CN(C)CCc1c[nH]c2ccc(Cn3cncn3)cc12` [Rizatriptan benzoate salt], the “MBP+ mature oligodendrocyte number” value is -0.0098. Regarding `CN(C)CCc1c[nH]c2ccc(Cn3cncn3)cc12` [Rizatriptan Benzoate], the “MBP+ mature oligodendrocyte number” value was -0.557. Turning to `NCCCCCCCCCCN` [1,10-Diaminodecane], the “MBP+ mature oligodendrocyte number” value was 1.5. Consider `CC(C)C[C@@H](C=O)NC(=O)[C@H](CC(C)C)NC(=O)[C@H](CC(C)C)NC(=O)OCc1ccccc1`, for which the “MBP+ mature oligodendrocyte number” value was less than -6.01. For the compound `O=c1oc(Cl)c(Cl)c2ccccc12` [3,4-Dichloroisocoumarin], the “MBP+ mature oligodendrocyte number” value stood at 0.555. For `COC1=CC(c2cc3ccccc3[nH]2)=N/C1=C\c1[nH]c(C)cc1C` [Obatoclax Mesylate (GX15-070)], the “MBP+ mature oligodendrocyte number” value is -6.44. In the case of `N=C(N)NC(=N)N1CCOCC1` [Moroxydine HCl] it was -0.78; in that of `CC(C)(C#N)c1ccc(N2C(=O)OCc3cnc4ccc(-c5cnc6ccccc6c5)cc4c32)cc1`, -4.4; in that of `CC(=O)Oc1cccc2c1C(=O)c1c(OC(C)=O)cc(C(=O)O)cc1C2=O` [Diacerein], 1.25. `CCN(CC)Cc1ccc2cc(COC(=O)Nc3ccc(C(=O)NO)cc3)ccc2c1` [Givinostat (ITF2357)]: the “MBP+ mature oligodendrocyte number” value was less than -4.81. `COc1cc(OC)c(C=C2C(=O)Nc3ccccc32)c(OC)c1`: the “MBP+ mature oligodendrocyte number” value was -0.533. Take `O=S(=O)(c1ccccc1)c1cnc2c(N3CCNCC3)cccc2c1`: the “MBP+ mature oligodendrocyte number” value turned out to be 1.69. As for `CC(C)C[C@H](NC(=O)[C@H](CCc1ccccc1)NC(=O)CN1CCOCC1)C(=O)N[C@@H](Cc1ccccc1)C(=O)N[C@@H](CC(C)C)C(=O)[C@@]1(C)CO1` [Carfilzomib (PR-171)], the “MBP+ mature oligodendrocyte number” value is less than -6.01. Consider `COc1ccc(C2(CNC(=O)c3ccc(NC(=O)c4ccco4)cc3)CCOCC2)cc1`, for which the “MBP+ mature oligodendrocyte number” value is -2.6. In the case of `O=C(O[C@H]1CN2CCC1CC2)N1CCc2ccccc2[C@@H]1c1ccccc1` [Solifenacin succinate] it was -5.85; in that of `NC(=O)N/N=C/c1ccc([N+](=O)[O-])o1` [Nitrofural], 0.613; in that of `CC1=CC(=O)NS(=O)(=O)O1` [Acesulfame Potassium], 1.22. For the compound `CN(C)CCC[C@@]1(c2ccc(F)cc2)OCc2cc(C#N)ccc21` [Escitalopram Oxalate], the “MBP+ mature oligodendrocyte number” value worked out at 7.84.

Consider `CN1CCCC(n2nc(Cc3ccc(Cl)cc3)c3ccccc3c2=O)CC1` (centres undefined) [Azelastine HCl], for which the “MBP+ mature oligodendrocyte number” value is -4.25. In the case of `CCN1CCN(C(=O)N[C@@H](C(=O)N[C@@H]2C(=O)N3[C@@H]2SC(C)(C)[C@@H]3C(=O)O)c2ccccc2)C(=O)C1=O` [Piperacillin Sodium] it was -0.438. With `CN(NC(=O)CC(=O)NN(C)C(=S)c1ccccc1)C(=S)c1ccccc1` [Elesclomol (STA-4783)] the figure was 1.16. For `CO[C@@H]1[C@@H](OC(N)=O)[C@@H](O)[C@H](Oc2ccc3c(O)c(NC(=O)c4ccc(O)c(CC=C(C)C)c4)c(=O)oc3c2C)OC1(C)C` [Novobiocin Sodium], the “MBP+ mature oligodendrocyte number” value came to 2.24. As for `Nc1cc(C(Cl)=C(Cl)Cl)c(S(N)(=O)=O)cc1S(N)(=O)=O` [Clorsulon], the “MBP+ mature oligodendrocyte number” value was determined as 1.53. Consider `CC[C@H](C)C(=O)O[C@H]1CCC=C2C=C[C@H](C)[C@H](CC[C@@H]3C[C@@H](O)CC(=O)O3)[C@H]21` [Mevastatin], for which the “MBP+ mature oligodendrocyte number” value was -4.55 ± 1.6.
